# Test results from the supplement of paper PMC12230231.
# ± gives the standard deviation of the averaged measurements. Restriction of a single-cycle SIVsab GFP reporter by TRIM5α v1-loop variants in CRFK cells. Human variants: read share among cells still uninfected after two challenges over input, higher = gained restriction. Rhesus variants: share among infected cells over input, higher = lost restriction. Reporter dose not given per row. No active / inactive call per row; the paper calls a change when both replicates lie above its controls (mean + 2 SD of stop or wild-type variants, or the top frameshift score). Residues outside the varied loop are taken from Swiss-Prot. The paper reads the human single-substitution scores as noise; they and the rhesus combinations repeat poorly (rank correlation 0.3 to 0.4), indel scores repeat only for the top variants, rhesus substitutions well (0.9).
# Test system: SIVsab (simian immunodeficiency virus of sabaeus monkeys), single-cycle GFP reporter, in CRFK cells
# Assay: enrichment among uninfected cells over input (fold); higher = stronger restriction
# Details: library: human / rhesus combinations
# Experimental: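 Pools of CRFK cells expressing variants of the TRIM5α v1 loop were challenged with the single-cycle reporter, sorted by GFP and sequenced; mean of two replicates.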
row,Sequence,enrichment
1,"MASGILVNVKEEVTCPICLELLTQPLSLDCGHSFCQACLTANHKKSMLDKGESSCPVCRISYQPENIRPNRHVANIVEKLREVKLSPEGQKVDHCARHGEKLLLFCQEDGKVICWLCERSQEHRGHHTFLTEEVAREYQVKLQAALEMLRQKQQEAEELEADIREEKASWKTQIQYDKTNVLADFEQLRDILDWEESNELQNLEKEEEDILKSLTNSETEMVQQTQSLRELISDLEHRLQGSVMELLQGVDGVIKRTENVTLKKPETFPKNQRRVFRAPDLKGMLEVFRELTDVRRYWVDVTVAPNNISCAVISEDKRQVSSPKPQIIYQAPGTRFTFPTLVNFNYCTGILGSQSITSGKHYWEVDVSKKTAWILGVCAGFQPDAMCNIEKNENYQPKYGYWVIGLEEGVKCSAFQDSSFHTPSVPFIVPLSVIICPDRVGVFLDYEACTVSFFNITNHGFLIYKFSHCSFSQPVFPYLNPRKCGVPMTLCSPSS [human TRIM5α, 330-340 = QAPGTRFTFPTLV]",0.141 ± 0.074
2,"MASGILVNVKEEVTCPICLELLTQPLSLDCGHSFCQACLTANHKKSMLDKGESSCPVCRISYQPENIRPNRHVANIVEKLREVKLSPEGQKVDHCARHGEKLLLFCQEDGKVICWLCERSQEHRGHHTFLTEEVAREYQVKLQAALEMLRQKQQEAEELEADIREEKASWKTQIQYDKTNVLADFEQLRDILDWEESNELQNLEKEEEDILKSLTNSETEMVQQTQSLRELISDLEHRLQGSVMELLQGVDGVIKRTENVTLKKPETFPKNQRRVFRAPDLKGMLEVFRELTDVRRYWVDVTVAPNNISCAVISEDKRQVSSPKPQIIYQAPGTLYTFPTLTNFNYCTGILGSQSITSGKHYWEVDVSKKTAWILGVCAGFQPDAMCNIEKNENYQPKYGYWVIGLEEGVKCSAFQDSSFHTPSVPFIVPLSVIICPDRVGVFLDYEACTVSFFNITNHGFLIYKFSHCSFSQPVFPYLNPRKCGVPMTLCSPSS [human TRIM5α, 330-340 = QAPGTLYTFPTLT]",0.0847 ± 0.12
3,"MASGILVNVKEEVTCPICLELLTQPLSLDCGHSFCQACLTANHKKSMLDKGESSCPVCRISYQPENIRPNRHVANIVEKLREVKLSPEGQKVDHCARHGEKLLLFCQEDGKVICWLCERSQEHRGHHTFLTEEVAREYQVKLQAALEMLRQKQQEAEELEADIREEKASWKTQIQYDKTNVLADFEQLRDILDWEESNELQNLEKEEEDILKSLTNSETEMVQQTQSLRELISDLEHRLQGSVMELLQGVDGVIKRTENVTLKKPETFPKNQRRVFRAPDLKGMLEVFRELTDVRRYWVDVTVAPNNISCAVISEDKRQVSSPKPQIIYQARGTRYTFQSFTNFNYCTGILGSQSITSGKHYWEVDVSKKTAWILGVCAGFQPDAMCNIEKNENYQPKYGYWVIGLEEGVKCSAFQDSSFHTPSVPFIVPLSVIICPDRVGVFLDYEACTVSFFNITNHGFLIYKFSHCSFSQPVFPYLNPRKCGVPMTLCSPSS [human TRIM5α, 330-340 = QARGTRYTFQSFT]",0.233 ± 0.083
4,"MASGILVNVKEEVTCPICLELLTQPLSLDCGHSFCQACLTANHKKSMLDKGESSCPVCRISYQPENIRPNRHVANIVEKLREVKLSPEGQKVDHCARHGEKLLLFCQEDGKVICWLCERSQEHRGHHTFLTEEVAREYQVKLQAALEMLRQKQQEAEELEADIREEKASWKTQIQYDKTNVLADFEQLRDILDWEESNELQNLEKEEEDILKSLTNSETEMVQQTQSLRELISDLEHRLQGSVMELLQGVDGVIKRTENVTLKKPETFPKNQRRVFRAPDLKGMLEVFRELTDVRRYWVDVTVAPNNISCAVISEDKRQVSSPKPQIIYQARGTRYTFPSLVNFNYCTGILGSQSITSGKHYWEVDVSKKTAWILGVCAGFQPDAMCNIEKNENYQPKYGYWVIGLEEGVKCSAFQDSSFHTPSVPFIVPLSVIICPDRVGVFLDYEACTVSFFNITNHGFLIYKFSHCSFSQPVFPYLNPRKCGVPMTLCSPSS [human TRIM5α, 330-340 = QARGTRYTFPSLV]",0.324 ± 0.18

# Same assay, conditions: library: insertions and deletions
row,Sequence,enrichment
1,"MASGILVNVKEEVTCPICLELLTQPLSLDCGHSFCQACLTANHKKSMLDKGESSCPVCRISYQPENIRPNRHVANIVEKLREVKLSPEGQKVDHCARHGEKLLLFCQEDGKVICWLCERSQEHRGHHTFLTEEVAREYQVKLQAALEMLRQKQQEAEELEADIREEKASWKTQIQYDKTNVLADFEQLRDILDWEESNELQNLEKEEEDILKSLTNSETEMVQQTQSLRELISDLEHRLQGSVMELLQGVDGVIKRTENVTLKKPETFPKNQRRVFRAPDLKGMLEVFRELTDVRRYWVDVTVAPNNISCAVISEDKRQVSSPKPQIIYGARGTRYQTFVGSQSITSGKHYWEVDVSKKTAWILGVCAGFQPDAMCNIEKNENYQPKYGYWVIGLEEGVKCSAFQDSSFHTPSVPFIVPLSVIICPDRVGVFLDYEACTVSFFNITNHGFLIYKFSHCSFSQPVFPYLNPRKCGVPMTLCSPSS [human TRIM5α, 9-codon deletion at 341]",1.83 ± 0.42
2,"MASGILVNVKEEVTCPICLELLTQPLSLDCGHSFCQACLTANHKKSMLDKGESSCPVCRISYQPENIRPNRHVANIVEKLREVKLSPEGQKVDHCARHGEKLLLFCQEDGKVICWLCERSQEHRGHHTFLTEEVAREYQVKLQAALEMLRQKQQEAEELEADIREEKASWKTQIQYDKTNVLADFEQLRDILDWEESNELQNLEKEEEDILKSLTNSETEMVQQTQSLRELISDLEHRLQGSVMELLQGVDGVIKRTENVTLKKPETFPKNQRRVFRAPDLKGMLEVFRELTDVRRYWVDVTVAPNNISCAVISEDKRQVSSPKPQIIYGARGARGTRYQTFVNFNYCTGILGSQSITSGKHYWEVDVSKKTAWILGVCAGFQPDAMCNIEKNENYQPKYGYWVIGLEEGVKCSAFQDSSFHTPSVPFIVPLSVIICPDRVGVFLDYEACTVSFFNITNHGFLIYKFSHCSFSQPVFPYLNPRKCGVPMTLCSPSS [human TRIM5α, 3-codon duplication at 331]",0.378 ± 0.24
3,"MASGILVNVKEEVTCPICLELLTQPLSLDCGHSFCQACLTANHKKSMLDKGESSCPVCRISYQPENIRPNRHVANIVEKLREVKLSPEGQKVDHCARHGEKLLLFCQEDGKVICWLCERSQEHRGHHTFLTEEVAREYQVKLQAALEMLRQKQQEAEELEADIREEKASWKTQIQYDKTNVLADFEQLRDILDWEESNELQNLEKEEEDILKSLTNSETEMVQQTQSLRELISDLEHRLQGSVMELLQGVDGVIKRTENVTLKKPETFPKNQRRVFRAPDLKGMLEVFRELTDVRRYWVDVTVAPNNISCAVISEDKRQVSSPKPQIITRYQTFVNFNYCTGILGSQSITSGKHYWEVDVSKKTAWILGVCAGFQPDAMCNIEKNENYQPKYGYWVIGLEEGVKCSAFQDSSFHTPSVPFIVPLSVIICPDRVGVFLDYEACTVSFFNITNHGFLIYKFSHCSFSQPVFPYLNPRKCGVPMTLCSPSS [human TRIM5α, 5-codon deletion at 329]",1.15 ± 0.34
4,"MASGILVNVKEEVTCPICLELLTQPLSLDCGHSFCQACLTANHKKSMLDKGESSCPVCRISYQPENIRPNRHVANIVEKLREVKLSPEGQKVDHCARHGEKLLLFCQEDGKVICWLCERSQEHRGHHTFLTEEVAREYQVKLQAALEMLRQKQQEAEELEADIREEKASWKTQIQYDKTNVLADFEQLRDILDWEESNELQNLEKEEEDILKSLTNSETEMVQQTQSLRELISDLEHRLQGSVMELLQGVDGVIKRTENVTLKKPETFPKNQRRVFRAPDLKGMLEVFRELTDVRRYWVDVTVAPNNISCAVISEDKRQVSSPKPQIIYGTRYQTFVNFNYCTGILGSQSITSGKHYWEVDVSKKTAWILGVCAGFQPDAMCNIEKNENYQPKYGYWVIGLEEGVKCSAFQDSSFHTPSVPFIVPLSVIICPDRVGVFLDYEACTVSFFNITNHGFLIYKFSHCSFSQPVFPYLNPRKCGVPMTLCSPSS [human TRIM5α, 3-codon deletion at 330]",0.559 ± 0.052
